One may read the inhibition as the relative decrease from the control value, in per cent.

Among all 340,000 compounds or so, about 6,900 (2%) were called active. Rule as the data show it: active = inhibition above about 30%; inactive = below that, where a call was filed. Only a part is listed here, and it is no random draw. Entries without a call were filed so in the source.

The assay addresses D(2) dopamine receptor (Homo sapiens) (UniProt P14416). As to the kind of experiment: HTS Assay for Allosteric Antagonists of the Human D2 Dopamine Receptor: Primary Screen for Antagonists. Also: 0% is about no effect. The settings on record: HEK293 TREx D2 cells, calcium flux, dopamine EC80; at 10 µM; stronger effect = higher value. Summed up: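 Compounds are added to dye-loaded, induced HEK293 T-REx cells coupled to calcium release via D2; after a 3 min kinetic read an EC80 dopamine stimulus is given and fluorescence is recorded for 3 more min.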
Chain of UniProt P14416 (P14416 whole entry, looked up): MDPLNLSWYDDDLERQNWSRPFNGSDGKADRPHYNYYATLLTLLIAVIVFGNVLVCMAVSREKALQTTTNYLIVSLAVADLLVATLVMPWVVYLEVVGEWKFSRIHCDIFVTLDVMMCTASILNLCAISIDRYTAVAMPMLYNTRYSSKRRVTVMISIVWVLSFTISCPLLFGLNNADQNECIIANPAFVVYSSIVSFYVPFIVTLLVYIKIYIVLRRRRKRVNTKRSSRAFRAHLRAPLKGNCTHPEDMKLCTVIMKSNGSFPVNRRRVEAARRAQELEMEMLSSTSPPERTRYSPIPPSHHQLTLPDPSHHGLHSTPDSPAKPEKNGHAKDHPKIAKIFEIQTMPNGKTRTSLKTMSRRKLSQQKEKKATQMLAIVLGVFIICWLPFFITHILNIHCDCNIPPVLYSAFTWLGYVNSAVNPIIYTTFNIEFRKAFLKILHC
Background: A change in cytosolic calcium serves as a functional read-out for many receptors and channels.
In the case of `O=C(NCc1cccc(Cl)c1)c1ccc(NC(=O)N2CCSc3ccccc32)cc1`, the inhibition came out at 15.2%.
In the case of `Cc1cc2[nH]c(=O)c(=O)[nH]c2cc1S(=O)(=O)N1CCN(c2ccccc2)CC1` it was 6.73%; in that of `COc1ccc(Cc2nc3ccccc3n2Cc2ccccc2C)cc1`, -3.14%; in that of `Cn1c(=O)c(=O)n(C)c2cc(NS(=O)(=O)c3ccc(Br)cc3)c(Cl)cc21`, -17.7%.
As to `CCc1ccc(-n2nc(CO)c(C(=O)NCc3ccccc3Cl)n2)cc1`, the inhibition was 7.89%.
As to `COc1ccc(NC(=O)N2CCCn3nc(C)cc32)cc1OC`, the inhibition was -4.08%.
`Cc1c(C(=O)N2CCCCCC2)c(S(=O)(=O)Nc2cccc(C#N)c2)c(C)n1C`: the inhibition came out at 12%.
As to `CC1(C)N=C(SCc2ccc(Cl)cc2)c2ccccc2N1`, the inhibition was -3.1%.
With `Cn1c(=O)cc(SCC(=O)NCc2ccc(F)cc2)c2cc(Cl)ccc21`, the inhibition came to 11.6%.
In the case of `CCOC(=O)c1c(C)[nH]c(C)c1S(=O)(=O)N1CCC(C(=O)Nc2ccccc2CC)CC1` it was -6.56%.
Then `COc1ccc(-c2cn3c(n2)sc2cc(C(=O)Nc4ccc(C)c(Cl)c4)ccc23)cc1`, with -7.71%; and `COC(=O)c1ccc(NC(=O)n2ncc3c(C)cccc32)cc1`, with 1.26%; and `CC1=C(c2ccc(C(C)C)cc2)S(=O)(=O)N=C1N1CCC(C(=O)Nc2ccc(C)cc2)CC1`, with 8.56%.
Turning to `CCc1ccc(NC(=O)c2cnn(-c3c(C)cccc3C)c2C2CCN(C(=O)OC(C)(C)C)CC2)cc1`, the inhibition was found to be 9.91%.
In the case of `CCOc1ccc(NC(=O)CCCn2c(C)c3cnn(-c4ccccc4)c(=O)c3c2C)cc1`, the inhibition came out at 1.74%.
For `O=S(=O)(c1ccc(-c2cnc(C3CC3)o2)cc1)N1CCN(c2ccc(F)cc2)CC1`, the inhibition worked out at 7%.
Regarding `CCn1nc(C)c2c(-c3ccccc3)cc(=O)n(C(C)C(=O)NCCc3ccc(Cl)cc3)c21` (stereo unspecified), the inhibition stood at 4.98%.
On to `Cc1ccc2[nH]c(=O)c(CN(CCCN3CCOCC3)C(=O)Nc3ccc(Cl)cc3)cc2c1`, for which the inhibition was active: 31.3%.
Then `CN(C)C=NC(=O)c1cc(C(=O)c2ccccc2Cl)c[nH]1`, with active: 46.3%; and `COc1ccc(OC)c(NC(=O)CSC2=Nc3ccccc3C3=NC(CC(=O)NCCc4ccccc4)C(=O)N23)c1` (stereo unspecified), with 8.15%.
Then `CCOc1cccc(CNCCCSc2nnnn2C)c1`, with 4.55%.
In the case of `Cc1ccc(-c2ccc([C@H]3[C@H]4C=CC[C@@H](C)[C@@H]4C(=O)N3Cc3ccccc3)c(F)c2)cc1` it was active: 33.2%.
As to `O=C(c1ccc2c(c1)N(Cc1cccc(Cl)c1)C(=O)c1ccccc1S2=O)N1CCC(Cc2ccccc2)CC1` (stereo unspecified), the inhibition stood at 1.01%.
In the case of `CCn1nnc(NC(=O)c2ccco2)n1` it was active: 69.4%; in that of `CCOC(=O)c1c(S(=O)(=O)N2CCC(C(=O)Nc3ccc(C)c(Cl)c3)CC2)c(C)n(C)c1C`, -18.1%; in that of `COc1nnc(-c2ccc(N3CCCCC3)c(NC(=O)c3ccc(C)cc3)c2)c2ccccc12`, -9.27%.
In the case of `O=C(c1cccc([N+](=O)[O-])c1)N1CCN(c2ccc(Nc3ccccc3)nn2)CC1` it was -13.7%; in that of `CCNC(=O)CC1C(=O)N(c2ccc(C)cc2)C(=O)N1CCOC` (stereo unspecified), -2.12%; in that of `COc1ccc(CNC(=O)CN2C(=O)CCn3nc(-c4cn(C)c5ccccc45)cc32)cc1`, 2.29%.
In the case of `CCOC(=O)C1=C(C)n2c(s/c(=C3\C(=O)Nc4ccccc43)c2=O)=NC1c1ccc(OC)cc1` (stereo unspecified) it was active: 39.7%.
For `COC(=O)c1cc(Cl)c(NC(=O)c2cc3ccccc3o2)cc1OC`, the inhibition was active: 32.4%.
`COc1cc(OC)cc(C(=O)N/N=C/c2ccc(OC)c(COc3ccc(F)cc3)c2)c1`: the inhibition was active: 34.2%.
As to `Oc1c(C(c2ccccc2)N2CCCC2)sc2nc(-c3ccco3)nn12` (stereo unspecified), the inhibition was determined as 3.19%.
In the case of `COc1ccc(-c2onc(C)c2C)cc1S(=O)(=O)NCCc1ccccc1` it was 0.109%.
In the case of `CCOC(=O)Cc1ccc(NC(=O)NC(C)c2c(-n3cccc3)sc(C)c2C)cc1` (stereo unspecified), the inhibition worked out at 3.9%.
Then `Cc1ccc(C)c(Cn2c(=O)n(-c3ccccc3)c(=O)c3c4c(sc32)CCCC4)c1`, with 3.18%; and `Cc1cc2oc(=O)c(CC(=O)O)c(C)c2c2occ(-c3ccccc3)c12`, with 3.09%.
Turning to `O=C(CN1CCc2ccccc2C1)Nc1ccccc1Cl`, the inhibition is active: 60.6%.
Then `CCOC(=O)c1c(C)[nH]c(CCC(=O)NCc2cc(OC)c(OC)c(OC)c2)c1C`, with -27.9%.
In the case of `COc1cc(-n2c(=O)c3ccccc3n(Cc3cccc(Cl)c3)c2=O)cc(OC)c1OC` it was 12.2%; in that of `O=C(Nc1ccc(Br)cc1)c1cc(S(=O)(=O)NC2CCCC2)ccc1F`, 17.4%.
In the case of `O=C(CCSCCc1ccccn1)Nc1ccc(Cl)cc1` it was 2.56%.
With `Cc1ccc2c(C)c(C(=O)N(Cc3ccc(N(C)C)cc3)Cc3ccco3)oc2c1C`, the inhibition turned out to be 5.21%.
For `COc1ccc2c(c1)c(N1CCCC1=O)c(C(=O)Nc1cc(C)c(Cl)cc1OC)n2C`, the inhibition turned out to be 8.91%.
Take `CCCCCC(=O)Nc1cc(N(C)C)nc2ccccc12`: the inhibition was active: 35.2%.
In the case of `CCN(c1ccccc1)S(=O)(=O)c1nnc(NC(=O)C2CCCCC2)s1` it was -9.24%; in that of `Cc1ccc2c(c1)cc1c(=O)n(Cc3ccccc3Cl)nc(C)n12`, -6.45%.
Take `CCOC(=O)c1ccccc1NC(=O)N1CCC(CN2CCOCC2)CC1`: the inhibition was -4.31%.
On to `CC1CCN(CCNC(=S)Nc2ccc(Cl)cc2)CC1`, for which the inhibition is active: 30.7%.
Then `C[C@H](NC(=O)OCc1ccccc1)c1nnc([C@H](Cc2ccccc2)NC(=O)OC(C)(C)C)o1`, with active: 30.9%; and `CCOC(=O)CSc1nnc(CNC(=O)c2cccc(C)c2)n1C`, with active: 35.3%.
In the case of `CCN1CCN(C(c2ccccc2Cl)c2sc3nc(-c4ccco4)nn3c2O)CC1` (stereo unspecified) it was 15.5%; in that of `CCOC(=O)c1[nH]c2c(c1Cc1ccccc1)C(=O)CC(c1ccccc1)C2` (stereo unspecified), -12.6%.
Then `CCOc1ccc(NC(=O)Cn2nc3c(cc2=O)CC(C)CC3)cc1` (stereo unspecified), with 2.22%; and `CC(C)Oc1ccc(C(=O)NCC(c2ccc(N(C)C)cc2)N2CCc3ccccc32)cc1` (stereo unspecified), with -3.37%; and `Cc1ccc(-c2noc(-c3nnn(CC(=O)Nc4ccc(C)c(Cl)c4)c3N)n2)cc1`, with -8.82%.
As for `CCOc1ccc(N(CC(=O)Nc2ccc(OC)cc2)S(=O)(=O)c2ccc(Cl)cc2)cc1`, the inhibition was -0.854%.
In the case of `Cc1ccc(C)c(NC(=O)Cn2c(SCC(=O)NCc3ccccc3)nc3ccccc32)c1` it was 0.657%; in that of `O=C(CN1C(=O)CSc2ccc(S(=O)(=O)N3CCOCC3)cc21)NCCCN1CCCCC1`, -10.4%.
Turning to `Cc1nc(-c2ccc(F)cc2)sc1CCNC(=O)c1cccs1`, the inhibition was found to be 9.67%.
In the case of `Cc1ccc(N(CC(=O)N2CCN(c3ccccc3)CC2)S(=O)(=O)c2c(C)noc2C)cc1` it was 2.79%.

The record behind these values is PubChem BioAssay AID485344 (National Center for Advancing Translational Sciences (NCATS), 2010).
